The source of these data is ChEMBL document CHEMBL4888484, “Replenishing the malaria drug discovery pipeline: Screening and hit evaluation of the MMV Hit Generation Library 1 (HGL1) against asexual blood stage Plasmodium falciparum ,using a nano luciferase reporter read-out” (2022).

Structures are written as SMILES. Screen size: about 150,000 compounds; about 540 (0.36%) showed an effect of 50% or more. The list shows a part of the results.

A word on the % Inhibition: it is the drop in the measured response relative to a control, in per cent.

The test system of this experiment is Plasmodium falciparum. The experiment can be described thus: Primary screen in NF54 nanoGlo assay, in single point, at 2uM, 72h; a lower Z score goes with more inhibition. The format is functional, Erythrocyte. Conditions: timepoint 72 hour.
For `CC(C)(C)OC(=O)NC1CCN(C(=O)Cn2c(=O)nc(-c3ccccc3)c3cc(Cl)ccc32)CC1`, the “% Inhibition” value is -7% and the Z score stood at 0.71.

With `Cc1ccccc1[C@H]1CN(C(=O)c2ccc(C(C)C)[nH]c2=O)C[C@@H]1C(=O)O`, the “% Inhibition” value is -1% and the Z score is recorded as 0.13.

For the molecule `Brc1ccc(-c2nc(-c3ccncc3)no2)o1`, the “% Inhibition” value was -2% and the Z score stood at 0.21.

For the molecule `CO[C@@]12CC[C@@H](NC(C)=O)C[C@@H]1N(C(=O)CCc1c(C)nn(C)c1C)CC2`, the “% Inhibition” value is 1% and the Z score is -0.07.

`Cc1ccc2c(C(=O)N3CCN(C)CC3)cc(-c3cnn(C)c3)nc2c1C`: the “% Inhibition” value is reported as -1% and the Z score is given as 0.09.

Take `CC(C)(C)OC(=O)[C@@H]1CCCN1c1ccc2nccnc2n1`: the “% Inhibition” value was -9% and the Z score turned out to be 0.77.

As for `Cc1ccc(-c2nc(CN3CCc4cncnc4C3)co2)c(C)c1`, the “% Inhibition” value is -4% and the Z score is recorded as 0.53.

As for `Cc1ccc(CNC(=O)c2cccc(-c3cnc4ccccc4c3)c2)cc1`, the “% Inhibition” value is -11% and the Z score is 1.37.

`Cc1nn(C)c2nc(N(CCN3CCOCC3)Cc3ccco3)sc12`: the “% Inhibition” value is given as -4% and the Z score was determined as 0.65.

As to `O=C(O)COc1ccc(C(=O)N[C@H]2C[C@H](c3ccccc3F)C2)cc1`, the “% Inhibition” value is listed as -2% and the Z score is on record as 0.3.

Turning to `CCC1C(C)CCN1C(=O)c1snc(OC)c1Br` (centres undefined), the “% Inhibition” value is 5% and the Z score is given as -0.73.

Take `COc1ccc([C@H]2CCCCN(C(=O)N3CCOCC3)C2)cc1`: the “% Inhibition” value stood at 28% and the Z score is reported as -3.51.

Regarding `Cc1ccc2nc(N3CCNCC3)c(-c3noc(-c4ccccc4)n3)cc2c1`, the “% Inhibition” value is given as -1% and the Z score was 0.18.

Take `Cc1ccc(NC(=O)Cc2nc(Cc3ccccc3F)n[nH]2)cc1`: the “% Inhibition” value is 1% and the Z score was -0.09.

`C[C@@H](C(=O)N1CCN(c2cc(=O)n(C)c(=O)n2C)CC1)N1C(=O)COc2ccccc21`: the “% Inhibition” value is -3% and the Z score worked out at 0.54.

As to `O=C(Cn1ccc2ccccc21)N1CCC(c2nnc(C3CC3)o2)CC1`, the “% Inhibition” value is 5% and the Z score was -0.6.

For the molecule `Cc1nc(CC(=O)NCCCc2c(C)n[nH]c2C)c(C)s1`, the “% Inhibition” value is on record as -2% and the Z score is 0.27.

Consider `O=C(N[C@H]1C[C@@H]2C[C@H]1CN2C(=O)NCCc1ccccc1)c1ccccc1`, for which the “% Inhibition” value worked out at 32% and the Z score was -3.62.

`Cc1ccc(C2OCCCC2NC(=O)c2cnn(C)c2)cc1` (centres undefined): the “% Inhibition” value is given as -7% and the Z score came to 0.68.

With `COc1nn(C)cc1CNC(=O)N[C@H](C)c1ccc(F)cc1Cl`, the “% Inhibition” value was 17% and the Z score was -2.85.

On to `CC(C)(C)n1nnnc1CN1CCC[C@H]1c1ncccn1`, for which the “% Inhibition” value is reported as -6% and the Z score came to 0.83.

With `CC(C)COc1cccc([C@H]2CC(=O)Nc3c2cnn3C(C)C)c1`, the “% Inhibition” value is -7% and the Z score is 0.92.

Take `Cn1c(COc2ccccc2C(N)=O)nnc1-c1ccc(Cl)cc1`: the “% Inhibition” value was determined as 3% and the Z score is -0.35.

With `CN(C)Cc1ccccc1C(=O)N1CCN2C(=O)OC[C@H]2C1`, the “% Inhibition” value amounted to 2% and the Z score was -0.21.

On to `Cc1cccc(C2CCC(C(=O)NC3CC3)CN2C(=O)Cc2ccccc2)c1` (centres undefined), for which the “% Inhibition” value worked out at 9% and the Z score is -1.3.

With `CCOC(=O)N1CCC(NC(=O)c2cnn3c(-c4ccc(Cl)cc4)ccnc23)CC1`, the “% Inhibition” value turned out to be 34% and the Z score was -3.9.

Regarding `COc1ccc2nnc(CNC(=O)c3snnc3C)n2n1`, the “% Inhibition” value is reported as 24% and the Z score is -3.02.

With `C[C@H]1CCCN(C(=O)CCS(C)(=O)=O)c2ccccc21`, the “% Inhibition” value is listed as -11% and the Z score stood at 0.94.

Take `O=C(NCC(=O)N(C[C@H]1CCCO1)C1(C(=O)NC2CCCC2)CCCCC1)c1ccccc1`: the “% Inhibition” value is reported as 2% and the Z score is -0.27.

`COc1ccc(S(=O)(=O)N2CCC(c3cc(N)on3)CC2)cc1Cl`: the “% Inhibition” value was found to be 57% and the Z score is reported as -3.68.

As for `O=C(c1ccccn1)N1CCC2(CC1)NCCc1c2[nH]c2ccccc12`, the “% Inhibition” value is 6% and the Z score is recorded as -0.8.

For the molecule `O=C(Nc1ccccc1CC(F)(F)F)NC1C2CCC(C2)C1CO` (centres undefined), the “% Inhibition” value was 1% and the Z score is listed as -0.12.

With `Cc1nn(CC(=O)N[C@@H](C)CO)c(=O)n1-c1ccc2c(c1)OCO2`, the “% Inhibition” value is reported as -3% and the Z score stood at 0.51.

Turning to `O[C@@H]1C[C@@H](c2nnc3n2CCN(Cc2ccc4[nH]ccc4c2)C3)N(Cc2ccccc2)C1`, the “% Inhibition” value is 7% and the Z score is -0.98.

Turning to `CC(C(=O)Nc1ccc(Cl)cn1)N1CCCC1Cn1cccn1` (centres undefined), the “% Inhibition” value is -11% and the Z score stood at 1.65.

On to `O=C(NCc1ncccc1O)[C@@H]1CCCN1C(=O)c1cccs1`, for which the “% Inhibition” value is -2% and the Z score was 0.38.

As for `CCN1CCCN(c2nc(C)cc(C)c2C#N)CC1=O`, the “% Inhibition” value is -9% and the Z score is 1.02.

On to `CN(C(=O)[C@H](N)c1ccccc1)C1CCCCC1`, for which the “% Inhibition” value was determined as 4% and the Z score was -0.8.

As to `CCn1cc(CN2C[C@H](C3CC3)[C@@H](N(C)C)C2)cn1`, the “% Inhibition” value is on record as -6% and the Z score was found to be 0.95.

On to `CC(=Cc1cccc(C(F)(F)F)c1)CN1CCN2CCOC[C@@H]2C1`, for which the “% Inhibition” value is on record as 11% and the Z score is given as -1.4.

With `CC(=O)N1CCN2C(=O)N([C@@H](C)c3ccccc3)C(=O)[C@@H]2C1`, the “% Inhibition” value was 0% and the Z score is listed as -0.03.

For the molecule `Cn1cccc(C(=O)NCCn2nc(-c3ccncc3)cc2C2CC2)c1=O`, the “% Inhibition” value is listed as -20% and the Z score is on record as 2.58.
